From the RNAGym collection of RNA variant scans (doi:10.1073/pnas.2313332121)
Variants at the background level are over-represented here.

B1: TPR 5TU (parent)
chain: GGAUCUUCUCGAUCUAACAAAAAAGACAAAUCUGCCACAAAGCUUGAGAGCAUCUUCGGAUGCAGAGGCGGCAGCCUUCGGUGGCGCGAUAGCGCCAACGUUCUCAACUAUGACACGCAAAACGCGUGCUCCGUUGAAUGGAGUUUAUCAUG

Variants of: B1
Experiment: polymerase ribozyme fitness, log enrichment relative to wild type (log ratio); higher = more active; in vitro selection for triplet polymerase activity
How it was run: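 PCR was used to build mutant libraries for each subunit of a heterodimeric triplet polymerase ribozyme, which were then transcribed. A single in vitro selection round, in triplicate, used a frozen incubation at −7 °C and recovered extended constructs by gel excision, streptavidin beads and RT-PCR. Fitness is the logarithm of genotype enrichment relative to wild-type enrichment, averaged over replicates with inverse-variance weights. The logarithm is base 2, and after Illumina sequencing only genotypes with ≥10 input reads and ≥1 read per output were kept.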

Variant	polymerase ribozyme fitness (log ratio)
GGAUCUUCUCGAUCUAACAAAAAAGACAAAUCUGCCACAAAGCUUGAGAGCAUCUUCGGAUGCAGAGGCGGCAGCCUUCGGUGGAGCGAUAGCGCCAACGUUCUCAAUUAUGACACGCAAAACGCGUGCUCCGUAGAAUGGAGCUUAUCAUG [C85A C108U U135A U144C]	-4.17
GGAUCUUCUCGAUCUAACAAAAAAGACAAAUCUGCCACAAAGCUUGAGAGCAUCUUCGGAUGCAGAGGCGGCAGCCUUCGGUGGAGCGAUAGCGCCAACGUUCUCAACUAUGACACGCAAAACGGGUGCUCCGUUGAAUGGAGUUUAUCAUG [C85A C125G]	-1.13
GGAUCUUCUCGAUCUAACAAAAAAGACAAAUCUGCCACAAAGCUUGAGAGCAUCUUCGGAUGCAGAGGCGGCAGCCUUCGGUGGAACGAUAGCGCCAACGUUCUCAACUAUGACACGCAAAACGCGUGCUCCGUUGAAUGGAGUUUAUCAUG [C85A G86A]	≤ -4.2
GGAUCUUCUCGAUCUAACAAAAAAGACAAAUCUGCCACAAAGCUUGAGAGCAUCUUCGGAUGCAGAGGCGGCAGCCUUCGGUGGAUCGAUAGCGCCAACGGUCUCAACUAUGACACGCAAAACGCGUGUUCCGUUGAAUGGAGUUUAUCAUG [C85A G86U U101G C129U]	≤ -4.2
GGAUCUUCUCGAUCUAACAAAAAAGACAAAUCUGCCACAAAGCUUGAGAGCAUCUUCGGAUGCAGAGGCGGCAGCCUUCGGUGGAGCGAUAUCGCCAACGUUCUCUACUAUGACACGCAAAACGCGUGCUCCGUUGAAUGGAGUUUAUCAUG [C85A G92U A106U]	≤ -4.2
GGAUCUUCUCGAUCUAACAAAAAAGACAAAUCUGCCACAAAGCUUGAGAGCAUCUUCGGAUGCAGAGGCGGCAGCCUUCGGUGGAGCGAUAUCGCCAACGUUCUCAACUAUGACACGCAAAACGCGUGCUGCGUUGAAUGGAGUUUAUCAUC [C85A G92U C131G G152C]	≤ -4.2
GGAUCUUCUCGAUCUAACAAAAAAGACAAAUCUGCCACAAAGCUUGAGAGCAUCUUCGGAUGCAGAGGCGGCAGCCUUCGGUGGAGCGAUAGCACCAACGUUCUCAACUAUGACACGCAAAACGCGUGCUCCGUUGAAUGGAGUUUAUCAUG [C85A G94A]	-1.74
GGAUCUUCUCGAUCUAACAAAAAAGACAAAUCUGCCACAAAGCUUGAGAGCAUCUUCGGAUGCAGAGGCGGCAGCCUUCGGUGGAGCGAUAGCCCCAACGUUCUCAACUAUGACACGCAACACGCGUGCUCCGUUGAAUGGAGUUUAUCAUG [C85A G94C A121C]	-1.84
GGAUCUUCUCGAUCUAACAAAAAAGACAAAUCUGCCACAAAGCUUGAGAGCAUCUUCGGAUGCAGAGGCGGCAGCCUUCGGUGGAGCGAUAGCGCCAACGUUCUCAACUAUUCCACGCAAAACGCGUGCUCCGUUGAAUGGAGUUUAGCAUG [C85A G112U A113C U148G]	≤ -4.2
GGAUCUUCUCGAUCUAACAAAAAAGACAAAUCUGCCACAAAGCUUGAGAGCAUCUUCGGAUGCAGAGGCGGCAGCCUUCGGUGGAGCGAUAGCGCCAACGUUCUCAACUAUGACACGCAAAACGCCUGCUCCGUUGAAUGGAGUUUAUCAUG [C85A G126C]	-0.131
GGAUCUUCUCGAUCUAACAAAAAAGACAAAUCUGCCACAAAGCUUGAGAGCAUCUUCGGAUGCAGAGGCGGCAGCCUUCGGUGGAGCGAUAGCGCCAACGUUCUCAACUAUGACACGCAAAACGCUUGCUCCGUUGAAUGGAGUUUAUCAUG [C85A G126U]	-0.409
GGAUCUUCUCGAUCUAACAAAAAAGACAAAUCUGCCACAAAGCUUGAGAGCAUCUUCGGAUGCAGAGGCGGCAGCCUUCGGUGGAGCGACAGCGCCAACGUUCUCAACUAUGAUACGCAAAACGCGUGCUCCGUUGAAUGGAGUUUAUCAUG [C85A U90C C114U]	≤ -4.2
GGAUCUUCUCGAUCUAACAAAAAAGACAAAUCUGCCACAAAGCUUGAGAGCAUCUUCGGAUGCAGAGGCGGCAGCCUUCGGUGGAGCGAUAGCGCCAACGUGCUCAACUAUGACACGCAAGCCGCGUGCUCCGUUGAAUGGAGUUUAUCAUG [C85A U102G A121G A122C]	≤ -4.2
GGAUCUUCUCGAUCUAACAAAAAAGACAAAUCUGCCACAAAGCUUGAGAGCAUCUUCGGAUGCAGAGGCGGCAGCCUUCGGUGGAGCGAUAGCGCCAACGUUCUCAACGAUGACACGUAAAACGCGUGCUCCGUUGAAUGGAGUUUAUCAUG [C85A U109G C118U]	-1.54
GGAUCUUCUCGAUCUAACAAAAAAGACAAAUCUGCCACAAAGCUUGAGAGCAUCUUCGGAUGCAGAGGCGGCAGCCUUCGGUGGAGCGAUAGCGCCAACGUUCUCAACUAGGACACGCAAAACGCGUGCUCCGUUGAAUGGAGUUUAUCAUG [C85A U111G]	≤ -4.2
GGAUCUUCUCGAUCUAACAAAAAAGACAAAUCUGCCACAAAGCUUGAGAGCAUCUUCGGAUGCAGAGGCGGCAGCCUUCGGUGGAGCGAUAGCGCCAACGUUCUCAACUAUGACACGCAAAACGCGUGCACCGUUGAAUGGAGUUUAUCAUG [C85A U130A]	-2.45
GGAUCUUCUCGAUCUAACAAAAAAGACAAAUCUGCCACAAAGCUUGAGAGCAUCUUCGGAUGCAGAGGCGGCAGCCUUCGGUGGAGCGAUAGCGCCAACGUUCUCAACUAUGACACGCAAAACGCGUGCUCCGCUGAAUGGAGUUUAUCAUG [C85A U134C]	-0.169
GGAUCUUCUCGAUCUAACAAAAAAGACAAAUCUGCCACAAAGCUUGAGAGCAUCUUCGGAUGCAGAGGCGGCAGCCUUCGGUGGAGCGAUAGCGCCAACGUUCUCAACUAUGACACGCAAAACGCGUGCUCCGUCGAAUGGAGUUUAUCAUG [C85A U135C]	-2.15
GGAUCUUCUCGAUCUAACAAAAAAGACAAAUCUGCCACAAAGCUUGAGAGCAUCUUCGGAUGCAGAGGCGGCAGCCUUCGGUGGAGCGAUAGCGCCAACGUUCUCAACUAUGACACGCAAAACGCGUGCUCCGUUGAAUGGAGCUUAUCAUG [C85A U144C]	-0.693

Variant	polymerase ribozyme fitness (log ratio)
GGAUCUUCUCGAUCUAACAAAAAAGACAAAUCUGCCACAAAGCUUGAGAGCAUCUUCGGAUGCAGAGGCGGCAGCCUUCGGUGGAGCGAUAGCGCCAACGUUCUCAACUAUGACACGCAAAACGCGUGCUCCGUUGAAUGGAGUUUAACAUG [C85A U148A]	-3.51
GGAUCUUCUCGAUCUAACAAAAAAGACAAAUCUGCCACAAAGCUUGAGAGCAUCUUCGGAUGCAGAGGCGGCAGCCUUCGGUGGAGCGAUAGCGCCAACGUUCUCAACUAUGACACGCAAAACGCGUGCUCCGUUGAAUGGAGUUUAUCAGG [C85A U151G]	≤ -4.2
GGAUCUUCUCGAUCUAACAAAAAAGACAAAUCUGCCACAAAGCUUGAGAGCAUCUUCGGAUGCAGAGGCGGCAGCCUUCGGUGGGGCGGUAGCGCUAACAUUCUCAACUAUGACACGCAAAACGCGUGCUCCGUUGAAUGGAGUUUAUCAUG [C85G A89G C96U G100A]	≤ -4.2
GGAUCUUCUCGAUCUAACAAAAAAGACAAAUCUGCCACAAAGCUUGAGAGCAUCUUCGGAUGCAGAGGCGGCAGCCUUCGGUGGGGCGAUUGCGCCAACGUUCUCAACUAUGACACGCAAAACGCGCGCUCCGUUGAAUGGAGUUUAUCAUG [C85G A91U U127C]	≤ -4.2
GGAUCUUCUCGAUCUAACAAAAAAGACAAAUCUGCCACAAAGCUUGAGAGCAUCUUCGGAUGCAGAGGCGGCAGCCUUCGGUGGGGCGAUAGCGCCCACUUUCUCAACUAUGACACGCAAAACGCGUCCUCCAUUGAAUGUAGUUUACCAUG [C85G A97C G100U G128C G133A G141U U148C]	≤ -4.2
GGAUCUUCUCGAUCUAACAAAAAAGACAAAUCUGCCACAAAGCUUGAGAGCAUCUUCGGAUGCAGAGGCGGCAGCCUUCGGUGGGGCGAUAGCGCCGACGUUCUCAACUAUGACACGCAAAACGCGUGCUCCGUUGAAUGGAGUUUAUCUUG [C85G A97G A150U]	-2.03
GGAUCUUCUCGAUCUAACAAAAAAGACAAAUCUGCCACAAAGCUUGAGAGCAUCUUCGGAUGCAGAGGCGGCAGCCUUCGGUGGGGCGAUAGCGCCAGCGUUCUCAACUAUGACACGCAAAACGCGUGCUCCGUUGAAUGGAGGUUAUCAUG [C85G A98G U144G]	-0.337
GGAUCUUCUCGAUCUAACAAAAAAGACAAAUCUGCCACAAAGCUUGAGAGCAUCUUCGGAUGCAGAGGCGGCAGCCUUCGGUGGGGCGAUAGCGCCAACGUUCUCCACUAUGACACGCAAAACGCGUGCUCCGUUGAAUGUAUUUUAUCAAG [C85G A106C G141U G143U U151A]	≤ -4.2
GGAUCUUCUCGAUCUAACAAAAAAGACAAAUCUGCCACAAAGCUUGAGAGCAUCUUCGGAUGCAGAGGCGGCAGCCUUCGGUGGGGCGAUAGCGCCAACGUUCUCGACUAUGACACGUGAAACGCGUGCUCCGUUGAAUGGAAUUUAACAUG [C85G A106G C118U A119G G143A U148A]	≤ -4.2
GGAUCUUCUCGAUCUAACAAAAAAGACAAAUCUGCCACAAAGCUUGAGAGCAUCUUCGGAUGCAGAGGCGGCAGCCUUCGGUGGGGCGAUAGCGCCAACGUUCUCAUCUAUGACACGCAAAACGCGUGCUCCGUUGAAUGGAGUUUAUCAUG [C85G A107U]	≤ -4.2
GGAUCUUCUCGAUCUAACAAAAAAGACAAAUCUGCCACAAAGCUUGAGAGCAUCUUCGGAUGCAGAGGCGGCAGCCUUCGGUGGGGCGAUAGCGCCAACGUUCUCAUCUAUUACACGCAAAACGCGUGCUCCGUUGAAUGGACUUUAUCAUG [C85G A107U G112U G143C]	≤ -4.2
GGAUCUUCUCGAUCUAACAAAAAAGACAAAUCUGCCACAAAGCUUGAGAGCAUCUUCGGAUGCAGAGGCGGCAGCCUUCGGUGGGGCGAUAGCGCCAACGUUCUCAACUAUGCCACGCAAAACGCGUGCCUCGUUGAAUGGAGUUUAUCAUG [C85G A113C U130C C131U]	≤ -4.2
GGAUCUUCUCGAUCUAACAAAAAAGACAAAUCUGCCACAAAGCUUGAGAGCAUCUUCGGAUGCAGAGGCGGCAGCCUUCGGUGGGGCGAUAGCGCCAACGUUCUCAACUAUGACCCGCUAAACGCGUGCUCCGUUGAAUGGACCUUAUCAUG [C85G A115C A119U G143C U144C]	≤ -4.2
GGAUCUUCUCGAUCUAACAAAAAAGACAAAUCUGCCACAAAGCUUGAGAGCAUCUUCGGAUGCAGAGGCGGCAGCCUUCGGUGGGGCGAUAGCGCCAACGUUCUCAACUAUGACACGCAAAGCGCGUGCUCCGUUGAAUGGAGUUUAUAAUG [C85G A122G C149A]	≤ -4.2
GGAUCUUCUCGAUCUAACAAAAAAGACAAAUCUGCCACAAAGCUUGAGAGCAUCUUCGGAUGCAGAGGCGGCAGCCUUCGGUGGGGCGAUAGCGCCAACGUUCUCAACUAUGACACGCAAAUAGCGUGCUCCGUUGAAUGGAGUUUAUCAUG [C85G A122U C123A]	-2.3
GGAUCUUCUCGAUCUAACAAAAAAGACAAAUCUGCCACAAAGCUUGAGAGCAUCUUCGGAUGCAGAGGCGGCAGCCUUCGGUGGGGCGAUAGCGCCAACGUUCUCAACUAUGACACGCAAAACGCGUGCUCCGUUGAUUGGAGUUUAUCAUG [C85G A138U]	≤ -4.2
GGAUCUUCUCGAUCUAACAAAAAAGACAAAUCUGCCACAAAGCUUGAGAGCAUCUUCGGAUGCAGAGGCGGCAGCCUUCGGUGGGGCGAUAGCGCCAACGUUCUCAACUAUGACACGCAAAACGCGUGCUCCGUUGAAUGGAGUUUUUCAUG [C85G A147U]	-0.872
GGAUCUUCUCGAUCUAACAAAAAAGACAAAUCUGCCACAAAGCUUGAGAGCAUCUUCGGAUGCAGAGGCGGCAGCCUUCGGUGGGGAGAUAGCGCCAACGUUCUCAACUAUGACACGCAAAACGCGUGCUCCGUUGAAUGGAGUUUAUCAUG [C85G C87A]	≤ -4.2
GGAUCUUCUCGAUCUAACAAAAAAGACAAAUCUGCCACAAAGCUUGAGAGCAUCUUCGGAUGCAGAGGCGGCAGCCUUCGGUGGGGGGAUAGCGCCAUCGUUCUCAACUAUGACACGCAAAACGCGUGCUCCGUUGGAUGGAGCUUAUCAUG [C85G C87G A98U A137G U144C]	≤ -4.2
